From the supplement of paper PMC7826260
Some of the results follow. Viral Rep nickase domains cut single-stranded DNA in vitro (1 h at 37 °C, 3 µM enzyme); the outer parts of the 90-letter strands are left off. A value is the log2 ratio of uncut reads to the pool without enzyme; strong cutting gives strongly negative numbers. There is no active / inactive call. The scaling is to total reads; uncut strands gain when others are lost, and binding without cutting may add a little.

Legend:
Test in all cases: uncleaved DNA left, log2 of reads against the no-enzyme library (log2 ratio); higher = less cleavage (more negative = more Rep cleavage of the k-mer); sequences stand for … in CTCGTCCG…ACCGGAGA
[1] = tested on: T1, Rep nickase domain of Muscovy duck circovirus
T1 sequence (residues 1-111, tag not shown): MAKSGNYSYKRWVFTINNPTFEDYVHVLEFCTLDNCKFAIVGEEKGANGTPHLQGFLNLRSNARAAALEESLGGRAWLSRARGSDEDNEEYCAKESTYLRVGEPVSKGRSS
Procedure: (§1)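 A pool of 90-nt single-stranded DNAs with seven random bases just before the constant AC of the nick site (name = the seven bases) was cut by 3 µM recombinant His6-SUMO-tagged Rep nickase domain (300 nM DNA, 50 mM HEPES pH 8.0, 50 mM NaCl, 1 mM MnCl2, 1 h, 37 °C, three replicates). Uncut DNA was amplified and sequenced.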

[2] = tested on: T2, Rep nickase domain of banana bunchy top virus
T2 sequence (residues 1-94, tag not shown): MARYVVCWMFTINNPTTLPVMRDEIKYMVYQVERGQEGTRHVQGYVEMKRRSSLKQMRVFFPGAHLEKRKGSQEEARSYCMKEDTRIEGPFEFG
Procedure: as §1

[3] = tested on: T3, Rep nickase domain of cabbage leaf curl virus
T3 sequence (residues 1-116, tag not shown): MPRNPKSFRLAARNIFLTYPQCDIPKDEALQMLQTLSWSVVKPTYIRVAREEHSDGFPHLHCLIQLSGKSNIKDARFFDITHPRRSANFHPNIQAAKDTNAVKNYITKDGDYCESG
Procedure: as §1

[4] = tested on: T4, Rep nickase domain of chickpea chlorotic dwarf virus
T4 sequence (residues 1-124, tag not shown): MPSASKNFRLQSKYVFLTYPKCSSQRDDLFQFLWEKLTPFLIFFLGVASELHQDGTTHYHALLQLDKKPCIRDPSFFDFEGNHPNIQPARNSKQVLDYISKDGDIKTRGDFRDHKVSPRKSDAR
Procedure: as §1

[5] = tested on: T5, Rep nickase domain of faba bean necrotic yellows virus
T5 sequence (residues 1-98, tag not shown): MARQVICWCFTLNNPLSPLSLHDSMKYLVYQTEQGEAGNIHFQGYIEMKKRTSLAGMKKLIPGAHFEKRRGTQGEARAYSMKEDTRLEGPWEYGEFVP
Procedure: as §1

[6] = tested on: T6, Rep nickase domain of maize striate mosaic virus
T6 sequence (residues 1-117, tag not shown): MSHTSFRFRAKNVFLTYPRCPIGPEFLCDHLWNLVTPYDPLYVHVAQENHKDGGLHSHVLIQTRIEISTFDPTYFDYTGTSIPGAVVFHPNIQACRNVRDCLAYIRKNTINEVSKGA
Procedure: as §1

[7] = tested on: T7, Rep nickase domain of porcine circovirus 2
T7 sequence (residues 2-116, tag not shown): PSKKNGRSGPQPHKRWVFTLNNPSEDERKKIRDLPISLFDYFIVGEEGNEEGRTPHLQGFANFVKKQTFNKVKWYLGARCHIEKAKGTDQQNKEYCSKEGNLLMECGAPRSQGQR
Procedure: as §1

[8] = tested on: T8, Rep nickase domain of tomato golden mosaic virus
T8 sequence (residues 1-124, tag not shown): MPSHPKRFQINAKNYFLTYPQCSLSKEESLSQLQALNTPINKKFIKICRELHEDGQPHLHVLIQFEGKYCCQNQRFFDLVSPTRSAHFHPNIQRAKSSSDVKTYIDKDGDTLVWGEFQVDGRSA
Procedure: as §1

[9] = tested on: T9, Rep nickase domain of tomato yellow leaf curl virus
T9 sequence (residues 1-136, tag not shown): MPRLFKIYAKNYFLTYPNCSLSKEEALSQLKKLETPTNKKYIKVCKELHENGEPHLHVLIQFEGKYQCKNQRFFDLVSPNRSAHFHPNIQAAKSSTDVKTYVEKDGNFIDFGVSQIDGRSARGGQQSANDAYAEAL
Procedure: as §1

[10] = tested on: T10, Rep nickase domain of wheat dwarf virus
T10 sequence (residues 1-137, tag not shown): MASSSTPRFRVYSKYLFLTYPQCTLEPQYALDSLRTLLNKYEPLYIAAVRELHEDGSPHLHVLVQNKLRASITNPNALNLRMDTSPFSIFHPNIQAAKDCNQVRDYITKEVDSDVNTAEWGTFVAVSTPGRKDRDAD
Procedure: as §1

| Sequence | uncleaved DNA left (log2) [1] | uncleaved DNA left (log2) [2] | uncleaved DNA left (log2) [3] | uncleaved DNA left (log2) [4] | uncleaved DNA left (log2) [5] | uncleaved DNA left (log2) [6] | uncleaved DNA left (log2) [7] | uncleaved DNA left (log2) [8] | uncleaved DNA left (log2) [9] | uncleaved DNA left (log2) [10] |
| --- | --- | --- | --- | --- | --- | --- | --- | --- | --- | --- |
| CACAGAG | 0.019 | -0.0359 | -0.733 | -0.486 | -0.027 | -1.14 | 0.0814 | -0.0901 | -0.0728 | -0.081 |
| TGGTCGG | -0.0369 | 0.00596 | 0.487 | 1.33 | -0.00992 | 1.76 | 0.0857 | 0.0492 | -0.0437 | -0.0732 |
| ACCTTGA | -0.0281 | 0.00487 | -0.439 | -0.484 | -0.1 | -1.24 | 0.0608 | 0.0397 | 0.00878 | -0.0805 |
| GCCGACG | -0.0482 | -0.0876 | -0.231 | 0.0914 | 0.102 | -0.304 | 0.154 | 0.0524 | -0.114 | -0.113 |
| CGGTGTA | -0.0126 | 0.0791 | 0.279 | 0.353 | -0.118 | 0.998 | -0.00775 | 0.0257 | 0.0259 | -0.0045 |
| CGCGGGT | -0.129 | -0.167 | -0.051 | -0.0582 | -0.189 | 0.244 | -0.0911 | -0.141 | -0.258 | -0.375 |
| ACATCTT | -2.67 | -0.0422 | -0.463 | -2.66 | 0.134 | -0.754 | -3.08 | -0.0574 | -0.0361 | -0.0561 |
| AAGAAGT | -0.0434 | -0.0837 | 0.212 | 0.767 | 0.0572 | 0.647 | -3.01 | 0.088 | -0.158 | -0.0146 |
| ACGCCCC | -0.0824 | 0.0271 | 0.00165 | 0.0553 | -0.0853 | -0.059 | -0.477 | -0.0083 | -0.0525 | -0.0911 |
| TTTGCGC | -0.0219 | -0.0853 | -0.739 | 0.79 | 0.0327 | -0.0738 | 0.0378 | -0.251 | 0.112 | 0.0018 |
| GCACCTG | -0.0853 | -0.0356 | -0.119 | 0.229 | -0.0761 | 0.322 | -0.017 | -0.0211 | -0.186 | 0.0488 |
| TGTTTTG | 0.175 | 0.0583 | -0.333 | -0.394 | 0.238 | -0.997 | 0.179 | 0.0255 | 0.129 | 0.0638 |
| AAAAGGA | -0.00296 | -0.00155 | 0.203 | 0.499 | 0.0541 | -0.0737 | 0.131 | 0.0802 | -0.114 | 0.00392 |
| GGCATGC | -0.0889 | -0.0594 | 0.22 | 0.859 | -0.112 | 0.908 | -0.0307 | -0.191 | -0.111 | -0.0561 |
| GTGAGAG | 0.0718 | 0.166 | 0.209 | 0.66 | 0.0163 | 0.0214 | 0.142 | 0.0554 | 0.109 | 0.0945 |
